# According to paper PMC4336329 (PLoS ONE, 2015):
# In all, about 310,000 compounds went through this assay and about 2,200 (0.71%) showed an effect of 50% or more. The effect is printed as a negative number. The list shows a part of the results.
# Target: human ether-à-go-go-related gene (hERG) potassium channel (human, UniProt Q12809)
# Assay: primary screen, population patch clamp on CHO cells stably expressing hERG
# Chain of human ether-à-go-go-related gene (hERG) potassium channel (Q12809 whole entry, looked up): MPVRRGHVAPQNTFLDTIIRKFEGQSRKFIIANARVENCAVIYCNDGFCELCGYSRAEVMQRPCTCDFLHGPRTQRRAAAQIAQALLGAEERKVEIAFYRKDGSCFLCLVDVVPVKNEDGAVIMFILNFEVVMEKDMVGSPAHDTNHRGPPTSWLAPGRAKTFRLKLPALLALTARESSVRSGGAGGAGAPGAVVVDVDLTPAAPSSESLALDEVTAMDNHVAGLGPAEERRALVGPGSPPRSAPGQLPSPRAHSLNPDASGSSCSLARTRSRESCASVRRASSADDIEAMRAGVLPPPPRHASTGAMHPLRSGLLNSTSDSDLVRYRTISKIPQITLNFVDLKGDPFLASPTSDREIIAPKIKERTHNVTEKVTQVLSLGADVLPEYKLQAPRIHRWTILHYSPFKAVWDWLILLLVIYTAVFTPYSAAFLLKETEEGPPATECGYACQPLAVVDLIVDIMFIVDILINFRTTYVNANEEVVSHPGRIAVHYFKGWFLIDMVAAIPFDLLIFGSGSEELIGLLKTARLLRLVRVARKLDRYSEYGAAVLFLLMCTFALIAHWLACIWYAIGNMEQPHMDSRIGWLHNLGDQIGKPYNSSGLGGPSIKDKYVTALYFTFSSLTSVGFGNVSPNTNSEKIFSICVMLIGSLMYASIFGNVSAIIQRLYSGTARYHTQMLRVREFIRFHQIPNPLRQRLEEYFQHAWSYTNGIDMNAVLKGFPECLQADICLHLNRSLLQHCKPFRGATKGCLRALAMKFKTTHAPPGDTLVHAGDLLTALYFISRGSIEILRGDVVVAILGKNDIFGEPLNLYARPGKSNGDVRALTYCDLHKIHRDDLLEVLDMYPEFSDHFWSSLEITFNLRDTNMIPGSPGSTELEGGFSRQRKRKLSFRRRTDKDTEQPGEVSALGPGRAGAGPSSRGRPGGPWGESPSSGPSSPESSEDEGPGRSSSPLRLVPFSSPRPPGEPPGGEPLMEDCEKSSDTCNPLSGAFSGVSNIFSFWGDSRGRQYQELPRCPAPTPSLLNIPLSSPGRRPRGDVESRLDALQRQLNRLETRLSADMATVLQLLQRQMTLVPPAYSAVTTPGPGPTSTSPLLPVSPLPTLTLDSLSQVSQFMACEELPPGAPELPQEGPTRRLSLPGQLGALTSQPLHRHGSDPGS
row,Structure (SMILES),"hERG current change (%, negative = inhibition) at 1uM [%]"
1,CC1CCc2c(nc3ncnn3c2NCCc2ccccc2F)C1 (stereo not drawn),0.709
2,COc1ccc(S(=O)(=O)N2CCC(C(=O)N[C@H](C(=O)N3CCCCCC3)C(C)C)CC2)cc1,12.3
3,CSc1nc2c(c(=O)[nH]1)CCCC2,15.6
4,O=C(NCCCCCNC(=O)c1ccco1)c1ccco1,15.5
5,Cc1cc(C)cc(Oc2cc(NC(=O)c3cn(C)nc3C)cc([N+](=O)[O-])c2)c1,8.34
6,Cc1cc(C(=O)CSc2nc(N)cc(=O)[nH]2)c(C)n1-c1cccc(F)c1,1.93
7,COc1ccc(-n2cc(CNC3CCC(O)CC3)c(-c3cccc(F)c3)n2)cc1 (stereo not drawn),4.86
8,CCOc1ccccc1C(=O)NC1CCNCC1,16.5
9,O=C(CSc1nc(O)c(C2CCCCC2)c(=O)[nH]1)Nc1ccccc1Cl,7.21
10,CN(C)c1ccc(CNC23CN4CN(CN(C4)C2)C3)cc1,5.35
11,COc1ccc(N(CC(=O)NCc2cccs2)S(=O)(=O)c2c(C)nn(C)c2C)cc1,5.96
12,CC(C)(C)OC(=O)NC(Cc1ccccc1)C(=O)NCCCC(=O)O (stereo not drawn),8.24
13,Cc1ccc(C(=O)OCCc2c(C)[nH]n(-c3ccccc3)c2=O)cc1,3.33
14,Cc1ccc(C)c(-c2nc3cc(N)ccc3o2)c1,16.5
15,O=C(NC1CCCCC1)N1CCN(c2ncccn2)CC1,15.3
16,CC(c1ccccc1)N1C(=O)C2C3C=CC(C4CC34)C2C1=O (stereo not drawn),11.8
17,O=c1[nH]c2ccc(NS(=O)(=O)c3ccc4ccccc4c3)cc2[nH]1,9.88
18,CN1CCN(C(=O)c2cc3cc(Cl)ccc3[nH]2)CC1.Cl,-0.452
19,COc1ccc(C)cc1NC(=O)CN1C(=O)COc2ccc(S(=O)(=O)N3CCC(C)CC3)cc21,16.8
20,CN(C)/C=C/C(=O)c1ccc(F)cc1F,10.8
21,CO/N=C(\CS(=O)(=O)Cc1ccc(OC)cc1)c1ccc(Cl)cc1,14.9
22,O=C(Cc1ccccc1)Nc1nc(=O)c2ccccc2s1,6.37
23,O=S1(=O)CC/C(=N/Nc2ccccn2)c2cc(F)ccc21,14.5

row,Structure (SMILES),"hERG current change (%, negative = inhibition) at 1uM [%]"
1,CCC(C)Nc1ncnc2c1cnn2Cc1ccc(Cl)cc1 (stereo not drawn),2.58
2,Cn1cccc1/C=C1\SC(=S)N(NC(=O)c2ccc(F)cc2)C1=O,13.6
3,O=C(c1ccco1)N1CCN(c2ncnc3c(-c4ccccc4)nsc23)CC1,4.97
4,Cc1ccc(C(=O)CSC2=C(C#N)C(c3ccco3)C3=C(CC(C)(C)CC3=O)N2)cc1 (stereo not drawn),11.5
5,COc1ccccc1-c1nnc2sc(COc3ccc(F)cc3)nn12,2.52
6,CC(C)(C)NC(=O)N1c2ccccc2Sc2ccccc21,15
7,CCOc1ccc(N2C(=O)CC(Sc3nc(-c4cccs4)cc(C(F)(F)F)c3C#N)C2=O)cc1 (stereo not drawn),9.85
8,CCC(=O)Nc1nnc(S(=O)(=O)N2CCCCCC2)s1,13.4
9,C=CCn1c(Oc2ccc(C=O)cc2OCC)nc2c1c(=O)n(C)c(=O)n2C,11.9
10,COc1cc(-c2cc(-c3ccc(O)cc3)nc(N)c2C#N)ccc1O,2.7
11,O=C(O)COc1ccc2c(c1)O/C(=C\c1cccs1)C2=O,16.4
12,Cc1cc(C)c2c(c1)cc(C)c1nnc(SCC(=O)N3CCCc4ccccc43)n12,11.1
13,CCCN1CCC2(CC1)C(C#N)=C(N)Oc1c2sc2nc(C)cc(C)c12,-21.1
14,CCOc1ccccc1C(=O)N[C@H](C(=O)OCc1cc([N+](=O)[O-])cc2c1OCOC2)C(C)C,11.8
15,Cc1c(-c2ccc(Cl)cc2)oc(=O)c2c(N)n(-c3ccccc3)nc12,3.8
16,CCOC(=O)N1CCN(c2c(N3CCN(C(=O)OCC)CC3)c(=O)c2=O)CC1,4.35
17,OC1(c2ccc(F)cc2)CC2CCC(C1)N2Cc1nnnn1C1CCCC1 (stereo not drawn),-0.602
18,Cc1ccc(-c2cc(C(=O)Nc3cc(C)ccc3O)no2)cc1,15.7
19,COCCC(=O)N1CCC(Oc2ccc(C(=O)N3CCCCCC3)cc2)CC1,8.92
20,CCC1Oc2ccccc2N(CC(=O)NCCCN2CCN(CC)CC2)C1=O (stereo not drawn),5.96
21,CN(C)/C=C/C(=O)c1ccccc1OCc1cnc(Cl)s1,0.765
22,O=C(Nc1cccc2ncccc12)c1ccc(-c2ccc(Br)cc2)o1,-1.73
23,CCCCC/C(=N/O)c1c(C)[nH]c2ccccc12,12.2

row,Structure (SMILES),"hERG current change (%, negative = inhibition) at 1uM [%]"
1,Cc1cc(C)n(-c2ncc(C#N)cn2)n1,10.7
2,S=c1ccc2ccccc2[nH]1,-0.594
3,CCN(C(=O)CCS(=O)(=O)c1cccc2nonc12)c1ccc(C)c(C)c1,5.11
4,Oc1ccc(O)c(-c2cnns2)c1,-0.746
5,C1=CC2CCC1ON2c1ccccc1 (stereo not drawn),8.77
6,NC(=O)COc1ccc(/C=C2\C(=O)ON=C2c2ccccc2)cc1,13.4
7,COc1ccc(NC(=O)c2cc(-c3cc(C)cc(C)c3O)n[nH]2)cc1Cl,6.46
8,CC(C)(C)C(=O)COC(=O)C1CC(=O)N(c2ccccc2)C1 (stereo not drawn),17
9,CN(C(=O)COC(=O)C12CC3CC(CC(C3)C1)C2)c1c(N)n(Cc2ccccc2)c(=O)[nH]c1=O,10.8
10,CC1Sc2ccc(S(=O)(=O)CCC(=O)NCc3ccc(Cl)cc3)cc2NC1=O (stereo not drawn),8.85
11,CCOc1cc(-c2nc(C)c(C(C)=O)n2O)ccc1OCC(=O)Nc1cccc(C)c1,3.9
12,CCOC(=O)C1=NN(c2ccccc2)C(c2ccccc2)CC1=O (stereo not drawn),10.9
13,COc1cc(C)nc(OCCNC(=O)COc2ccc(Cl)cc2C)n1,-0.137
14,CCN1C(=O)[C@H]2[C@@H](c3ccc(Cl)cc3)N3C(=O)CN(CCOC)C(=O)[C@@]3(Cc3ccccc3)[C@H]2C1=O,4.24
15,CCOC(=O)C(C(=O)OCC)N(C#N)c1nc(N(C)C)nc(N(C)C)n1,13.1
16,Cc1nc(-c2ccccc2)sc1C(=O)/C=C/N(C)C,0.555
17,Cc1cc(C)n2nc(SCC(=O)N3CCOCC3)nc2n1,9.84
18,CCC1(c2ccc(F)cc2)NC(=O)N(CC(=O)NCc2ccccc2Cl)C1=O (stereo not drawn),4.49
19,COCC(=O)NC1CCN(C(=O)NCc2ccccc2)CC1,2.12
20,Cc1ccc(C(c2cc(Br)ccc2O)N2CCSCC2)cc1 (stereo not drawn),-7.34
21,O=c1[nH]c(C2CCCN(S(=O)(=O)c3ccccc3)C2)nc2c1nnn2Cc1cccc(Cl)c1 (stereo not drawn),16
22,Cc1c(C(=O)N2CCCc3ccccc32)oc2ccc(S(=O)(=O)N3CCOCC3)cc12,-11.9
23,O=C(NCC1CC1)c1onc(CSc2ccc(F)cc2)c1C(=O)NCC1CC1,0.191

row,Structure (SMILES),"hERG current change (%, negative = inhibition) at 1uM [%]"
1,CO/N=C/C(C#N)c1ncc(C(F)(F)F)cc1Cl (stereo not drawn),-4.28
2,CCOc1ccc(-c2nnc(NC(=O)Cc3cc(OC)c(OC)c(OC)c3)o2)cc1,12.8
3,Cc1ccc(NC(=O)CSc2ncc3ccccn23)cc1C,3.69
4,CCC(Sc1ccc2nnc(-c3cccnc3)n2n1)C(=O)O (stereo not drawn),14.5
5,CCOC(=O)C1=C(C)OC(N)=C(C#N)C1c1cc2ccccc2nc1N1CCCCC1 (stereo not drawn),10.2
6,CC1(c2ccccc2Cl)NC(=O)N(CC(=O)Nc2ccc3c(c2)OCO3)C1=O (stereo not drawn),8.46
7,Cc1cc(SCC(=O)c2ccccc2)nc(C)n1,15.6
8,Br.Cc1ccc(Nc2nc(-c3sc(N)nc3C)cs2)cc1,8.96
9,COc1ccccc1CNC(=O)CSC1=NCCS1,14.4
10,S=C(Nc1ccccc1Cl)N(CCN1CCCCC1)Cc1ccco1,-16
11,Cc1[nH]c(C)c(S(=O)(=O)Nc2cccc(Cl)c2C)c1C(=O)N1CCCC1,6.42
12,O=C(c1cc([N+](=O)[O-])cc([N+](=O)[O-])c1)N1CCN(Cc2ccc3c(c2)OCO3)CC1,-22.1
13,COC(=O)CC(NC(=O)c1ccc(C)cc1)c1ccccc1 (stereo not drawn),11.8
14,COC(=O)c1c(C)[nH]c(-c2csc(N)n2)c1C,13.8
15,CN(CC(=O)Nc1ccccc1Cl)C(=O)CN1C(=O)C2CCCCC2C1=O (stereo not drawn),-1
16,CCN(CC)C(=O)COn1c(SCC(=O)N(CC)CC)nc2ccccc2c1=O,-3.4
17,COc1ccc(S(=O)(=O)NCC2CCCN(C(=O)CNC(C)=O)C2)cc1 (stereo not drawn),21.7
18,Cc1ccc(N2CCN(C(=O)c3ccccc3)CC2)c(C)c1,9.08
19,CCN(CC(=O)NCc1ccccn1)S(=O)(=O)c1ccc(OC)cc1,13.2
20,COc1ccc(/C=C/C(=O)OCC(=O)Nc2ccc(C)cc2)cc1S(=O)(=O)N1CCOCC1,-3.01
21,COc1ccc(N2C(=O)CSC23C(=O)N2c4c(cccc43)C(C)=CC2(C)C)cc1 (stereo not drawn),7.29
